From a collection of fitness landscapes (doi:10.1016/j.celrep.2020.107928)
In all, about 81,000 sequences were measured (“one-hybrid fitness for binding parS DNA”: median about -0.17, highest 2% from about 0.51 on). Some of the results follow.

B1: Caulobacter ParB omega fusion; a variant is named by its letters at X, in order, B8GW30 (parent)
chain: MESVVVGEPGMSEGRRGLGRGLSALLGEVDAAPAQAPGEQLGGSREAPIEILQRNPDQPRRTFREEDLEDLSNSIREKGVLQPILVRPSPDTAGEYQIVAGERAWRAAQRAGLKTVPIMVRELDDLAVLEIGIIENVQRADLNVLEEALSYKVLMEKFERTQENIAQTIGKSXSHVANXMRLLXLPDEVQSYLVSGELTAXHARAIAAAADPVALAKQIIEGGLSVRETEALARKAPNLSAGKSKGGRPPRVKDTDTQALESDLSSVLGLDVSIDHRGSTGTLTITYATLEQLDDLCNRLTRGI

Variants of: B1
Assay: one-hybrid fitness for binding parS DNA (scaled: cognate 1, non-cognate 0); higher = stronger binding
Conditions: with parS DNA site
Procedure, shortened: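 On M9-minus-histidine containing 0.1 mM IPTG and 5 mM 3-AT, E. coli USO cells with a HIS3 reporter, site 19 bp from the promoter, grew 48 hours at 37°C to select Caulobacter ParB libraries randomised at four specificity codons. Plasmids from before and after were Illumina-sequenced, with three replicate libraries pooled and variants under 10 reads left out. Fitness is the log change in variant-to-wild-type read ratio, rescaled against cognate and non-cognate.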

Variant	one-hybrid fitness for binding parS DNA
DVSY	≤ 0.2
EKIC	≤ 0.2
EYKY	≤ 0.2
LRYA	≤ 0.2
DDWN	≤ 0.2
KKMD	≤ 0.2
WWGS	≤ 0.2
PFSN	≤ 0.2
EMIG	≤ 0.2
VNAR	≤ 0.2
QIVG	≤ 0.2
QVYA	≤ 0.2
GVAF	≤ 0.2
MVMG	≤ 0.2
WLDS	0.221
PFET	≤ 0.2
PLDM	≤ 0.2
LDYD	≤ 0.2
PIVY	≤ 0.2
CPAG	≤ 0.2
KCCG	≤ 0.2
NYVV	≤ 0.2
SATK	≤ 0.2
LRTF	≤ 0.2
PHYR	≤ 0.2
TMKA	≤ 0.2

Variant	one-hybrid fitness for binding parS DNA
LALG	≤ 0.2
ITVT	≤ 0.2
RWWA	0.254
LSKW	≤ 0.2
QMLG	≤ 0.2
NASK	≤ 0.2
PEDR	≤ 0.2
PQVK	≤ 0.2
FMHR	≤ 0.2
QRAD	≤ 0.2
NNSA	≤ 0.2
YRAK	≤ 0.2
RWPN	≤ 0.2
RQAM	0.292
DRQG	≤ 0.2
FLEF	≤ 0.2
DGPT	≤ 0.2
ERET	≤ 0.2
YTRY	≤ 0.2
QSKW	≤ 0.2
TYLM	≤ 0.2
LNDG	≤ 0.2
KSRC	≤ 0.2
DTHL	≤ 0.2
RRYA	0.813
RPPH	≤ 0.2

Variant	one-hybrid fitness for binding parS DNA
WSDS	≤ 0.2
DSTG	≤ 0.2
LAKN	≤ 0.2
CKPG	≤ 0.2
ARPS	≤ 0.2
YTWT	≤ 0.2
DHTS	≤ 0.2
TAFV	≤ 0.2
QHLG	≤ 0.2
FGMC	≤ 0.2
GRQA	≤ 0.2
HQVG	≤ 0.2
SYMA	≤ 0.2
YCRG	≤ 0.2
KINK	≤ 0.2
ESER	≤ 0.2
ISKM	≤ 0.2
VYNW	≤ 0.2
EQRS	≤ 0.2
TQKR	≤ 0.2
SMPY	≤ 0.2
SRPA	≤ 0.2
KESL	≤ 0.2
EHKT	≤ 0.2
SCVM	≤ 0.2
KACR	≤ 0.2

Variant	one-hybrid fitness for binding parS DNA
VGRL	≤ 0.2
DGSE	≤ 0.2
CSSV	≤ 0.2
ATSA	≤ 0.2
ANTE	≤ 0.2
RPWG	≤ 0.2
QARM	≤ 0.2
YRMA	≤ 0.2
TRKS	≤ 0.2
NSGG	≤ 0.2
GDSV	≤ 0.2
SYPY	≤ 0.2
GMEC	≤ 0.2
SDMS	≤ 0.2
FFNS	≤ 0.2
LAHS	≤ 0.2
QSEV	≤ 0.2
NIPH	≤ 0.2
KSPK	≤ 0.2
IHAC	≤ 0.2
WLWT	≤ 0.2
YWES	≤ 0.2
RKYW	≤ 0.2
AMSI	≤ 0.2
GMFV	≤ 0.2
QSYN	≤ 0.2

Variant	one-hybrid fitness for binding parS DNA
DHKV	≤ 0.2
TTPT	≤ 0.2
CHFC	≤ 0.2
GRHR	≤ 0.2
SWWT	≤ 0.2
DYWC	0.205
PTEF	≤ 0.2
DASG	≤ 0.2
YQSL	≤ 0.2
FPMC	≤ 0.2
QKFY	≤ 0.2
FIYG	≤ 0.2
ELGC	≤ 0.2
QHIA	≤ 0.2
LCQV	≤ 0.2
CRPF	≤ 0.2
PGTT	≤ 0.2
MIKS	≤ 0.2
DLPR	≤ 0.2
GLAC	≤ 0.2
HCLS	≤ 0.2
AMQD	≤ 0.2
MCVS	≤ 0.2
QLNF	≤ 0.2
KSVY	≤ 0.2
MVQP	0.256

Variant	one-hybrid fitness for binding parS DNA
TIAA	≤ 0.2
WSKA	≤ 0.2
SLVA	≤ 0.2
TTAQ	≤ 0.2
SYLM	≤ 0.2
THGM	≤ 0.2
QAHN	≤ 0.2
IRLM	≤ 0.2
TCLM	≤ 0.2
LCES	≤ 0.2
YKEC	≤ 0.2
MTES	≤ 0.2
RPNA	≤ 0.2
SSGG	≤ 0.2
KWDS	≤ 0.2
VCWG	≤ 0.2
ILHS	≤ 0.2
KVSC	≤ 0.2
VFPY	≤ 0.2
PFQF	≤ 0.2
PCSI	≤ 0.2
VHYL	≤ 0.2
YPWS	≤ 0.2
